Reference: the supplement of paper PMC4604168 (melanoma cell lines)
The other results are listed elsewhere or left out. Repeats are few or missing, and single values can be far off.

Columns and labels:
Assay in all cases: cell count relative to DMSO control; melanoma cells; higher = more viable cells
Settings in all cases: library dose: standard library concentration; 72 h
G361 = test system: G361
IPC-298 = test system: IPC-298
IST-MEL1 = test system: IST-MEL1
LB2518-MEL = test system: LB2518-MEL
LOXIMVI = test system: LOXIMVI
MEL-HO = test system: MEL-HO
MZ2-MEL = test system: MZ2-MEL
MeWo = test system: MeWo
RPMI7951 = test system: RPMI7951
RVH-421 = test system: RVH-421
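Also: cells treated in 1,536-well plates, then fixed and DAPI-stained, with nuclei counted from automated high-throughput microscope images.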

Compound	cell count (G361) [%]	cell count (IPC-298) [%]	cell count (IST-MEL1) [%]	cell count (LB2518-MEL) [%]	cell count (LOXIMVI) [%]	cell count (MEL-HO) [%]	cell count (MZ2-MEL) [%]	cell count (MeWo) [%]	cell count (RPMI7951) [%]	cell count (RVH-421) [%]
CC1(C)NC(=O)N(c2ccc([N+](=O)[O-])c(C(F)(F)F)c2)C1=O [nilutamide] + Cn1cncc1[C@@](N)(c1ccc(Cl)cc1)c1ccc2c(c1)c(-c1cccc(Cl)c1)cc(=O)n2C [tipifarnib] (first compound 5 µM, partner dose 0.05 µM)	84.4	81.8	61.3	64.7	73.2	88.7	102	77.8	64	77.7
CC1(C)NC(=O)N(c2ccc([N+](=O)[O-])c(C(F)(F)F)c2)C1=O [nilutamide] + C[C@@H]1CCN(C(=O)CC#N)C[C@@H]1N(C)c1ncnc2[nH]ccc12 [CP690550] (first compound 5 µM, partner dose 5 µM)	101	101	104	111	79.7	95.6	124	77.7	120	91
CC1(C)NC(=O)N(c2ccc([N+](=O)[O-])c(C(F)(F)F)c2)C1=O [nilutamide] + NC(=O)Nc1cc(-c2cccc(F)c2)sc1C(=O)N[C@H]1CCCNC1 [AZD7762] (first compound 5 µM, partner dose 0.1 µM)	94.5	101	112	69.5	61.9	88	94.9	74.4	44	105
O=C(Nc1cccc(Cl)c1)Nc1ncc(CCNc2ncnc3ccsc23)s1 + COc1cc(N2CCC(N3CCN(C)CC3)CC2)ccc1Nc1ncc(Cl)c(Nc2ccccc2S(=O)(=O)C(C)C)n1 [NVP-TAE684] (first compound 0.004 µM, partner dose 0.4 µM)	87.2	91.3	80.1	71	109	98.4	77.3	68.7	46.2	100
O=C(O)c1ccc(-c2c[nH]c3ncc(-c4ccccc4)cc23)cc1C1CCCC1 + Oc1cc(-c2nc(-c3ccccc3)[nH]c2-c2ccncc2)ccc1Cl [L779450] (first compound 0.8 µM, partner dose 1 µM)	48.5	68.3	83.8	86.5	96.4	66.5	93.2	88.5	63	54.3
O=C(O)c1ccc(-c2c[nH]c3ncc(-c4ccccc4)cc23)cc1C1CCCC1 + CCN(CC)CCCCNc1ncc2cc(-c3cc(OC)cc(OC)c3)c(NC(=O)NC(C)(C)C)nc2n1 [PD173074] (first compound 0.8 µM, partner dose 0.5 µM)	60.7	91.7	82.5	105	80.6	66.9	97.9	76.5	91.2	94.2
O=C(O)c1ccc(-c2c[nH]c3ncc(-c4ccccc4)cc23)cc1C1CCCC1 + COc1ccc(-c2ccc3c(N4CCOCC4)nc(N4C[C@@H](C)O[C@@H](C)C4)nc3n2)cc1CO [KU0063794] (first compound 0.8 µM, partner dose 0.1 µM)	48.9	55.2	79.9	66.6	72	60.6	63.1	77.6	74.7	88.3
COc1cc(Nc2ncc(F)c(Nc3ccc4c(n3)NC(=O)C(C)(C)O4)n2)cc(OC)c1OC [Tamatinib] + CC(C)(C)c1cnc(CSc2cnc(NC(=O)C3CCNCC3)s2)o1 [SNS-032] (first compound 2 µM, partner dose 0.05 µM)	82.3	101	73.4	82.6	31.6	84.2	78.7	76.9	26.1	91.7
COc1cc(Nc2ncc(F)c(Nc3ccc4c(n3)NC(=O)C(C)(C)O4)n2)cc(OC)c1OC [Tamatinib] + Oc1cc(-c2nc(-c3ccccc3)[nH]c2-c2ccncc2)ccc1Cl [L779450] (first compound 2 µM, partner dose 1 µM)	47.1	58.4	43.2	65.2	7.46	61	64.9	57.3	14.2	73.4
COc1cc(Nc2ncc(F)c(Nc3ccc4c(n3)NC(=O)C(C)(C)O4)n2)cc(OC)c1OC [Tamatinib] + O=C(O)c1ccc(-c2c[nH]c3ncc(-c4ccccc4)cc23)cc1C1CCCC1 [GSK650394] (first compound 2 µM, partner dose 0.8 µM)	62.9	73.8	44.3	90	37.2	57.8	81.6	69.6	42.5	69.3
Cn1cncc1[C@@](N)(c1ccc(Cl)cc1)c1ccc2c(c1)c(-c1cccc(Cl)c1)cc(=O)n2C [tipifarnib] + COc1cc(N2CCC(N3CCN(C)CC3)CC2)ccc1Nc1ncc(Cl)c(Nc2ccccc2S(=O)(=O)C(C)C)n1 [NVP-TAE684] (first compound 0.05 µM, partner dose 0.4 µM)	60.7	68	84	57	144	81.8	70.2	60.8	44.6	73.7
O=c1[nH]nc(Sc2ncc([N+](=O)[O-])s2)n1-c1ccc2c(c1)OCCO2 + C=CCNC1=C2C[C@@H](C)C[C@H](OC)[C@H](O)[C@@H](C)/C=C(\C)[C@H](OC(N)=O)[C@@H](OC)/C=C\C=C(/C)C(=O)NC(=CC1=O)C2=O [Tanespimycin] (first compound 1 µM, partner dose 0.01 µM)	74	88.8	70.5	79.4	103	72.7	96.1	63.9	24.8	72.9
O=C(Nc1cccc(Cl)c1)Nc1ncc(CCNc2ncnc3ccsc23)s1 + COc1ccc(COc2ccc(Cc3cnc(N)nc3N)cc2OC)cc1 [GW2580] (first compound 0.004 µM, partner dose 5 µM)	86.1	91.2	55.7	89.3	86.1	72.1	97.6	91.5	61.9	82.4
Cn1cncc1[C@@](N)(c1ccc(Cl)cc1)c1ccc2c(c1)c(-c1cccc(Cl)c1)cc(=O)n2C [tipifarnib] + Cn1cc(/C=C2\C(=O)Nc3cccnc32)c2ccccc21 [GW441756] (first compound 0.05 µM, partner dose 2 µM)	78.8	89.5	99	77.1	120	93.7	90.7	95.7	76.5	84.2
CC1(C)NC(=O)N(c2ccc([N+](=O)[O-])c(C(F)(F)F)c2)C1=O [nilutamide] + Oc1nc(-c2ccc(C(F)(F)F)cc2)nc2c1CSCC2 [XAV939] (first compound 5 µM, partner dose 10 µM)	86.1	92.7	112	74.6	69.8	95.6	93.2	85.7	67.2	98.4
COc1cc(Nc2ncc(F)c(Nc3ccc4c(n3)NC(=O)C(C)(C)O4)n2)cc(OC)c1OC [Tamatinib] + CN(NC(=O)CC(=O)NN(C)C(=S)c1ccccc1)C(=S)c1ccccc1 [STA4783] (first compound 2 µM, partner dose 0.03 µM)	22.2	39.2	11.3	10.6	23.7	62.9	75.8	10.5	40.8	44.9
O=c1[nH]nc(Sc2ncc([N+](=O)[O-])s2)n1-c1ccc2c(c1)OCCO2 + COCC[n+]1c2c(n(Cc3cnccn3)c1C)C(=O)c1ccccc1C2=O [YM155] (first compound 1 µM, partner dose 0.002 µM)	112	74.9	58.1	69	77.1	109	41.9	41.6	42.6	105
O=c1[nH]nc(Sc2ncc([N+](=O)[O-])s2)n1-c1ccc2c(c1)OCCO2 + Cn1sc(=O)n(Cc2ccccc2)c1=O [TDZD-8] (first compound 1 µM, partner dose 2 µM)	64.7	72.8	69.2	104	36.9	92.2	85.2	61.2	3.98	27
COc1cc(Nc2ncc(F)c(Nc3ccc4c(n3)NC(=O)C(C)(C)O4)n2)cc(OC)c1OC [Tamatinib] + COc1ccc(-c2ccc3c(N4CCOCC4)nc(N4C[C@@H](C)O[C@@H](C)C4)nc3n2)cc1CO [KU0063794] (first compound 2 µM, partner dose 0.1 µM)	80.9	66.4	76.3	87	26.2	69	57.6	52.9	31.3	72.4
O=C(O)c1ccc(-c2c[nH]c3ncc(-c4ccccc4)cc23)cc1C1CCCC1 + CCc1ccc(CCOc2ccc(CC3SC(=O)NC3=O)cc2)nc1 [pioglitazone] (first compound 0.8 µM, partner dose 10 µM)	55.1	76.4	72.2	91.3	99.4	75.6	72.1	97.7	99	91.3
CC1(C)NC(=O)N(c2ccc([N+](=O)[O-])c(C(F)(F)F)c2)C1=O [nilutamide] + NCC(=O)Nc1ccc(-n2nc(C(F)(F)F)cc2-c2ccc3c(ccc4ccccc43)c2)cc1 [OSU03012] (first compound 5 µM, partner dose 5 µM)	75.6	68.9	90.7	88	82	87.6	94.4	87.4	105	98.3
O=C(O)c1ccc(-c2c[nH]c3ncc(-c4ccccc4)cc23)cc1C1CCCC1 + NCC(=O)Nc1ccc(-n2nc(C(F)(F)F)cc2-c2ccc3c(ccc4ccccc43)c2)cc1 [OSU03012] (first compound 0.8 µM, partner dose 5 µM)	52.8	54.6	81.1	83.2	99.9	82.7	88.4	80.7	104	73.3
O=C(O)c1ccc(-c2c[nH]c3ncc(-c4ccccc4)cc23)cc1C1CCCC1 + c1cc(-c2cnn3cc(-c4ccc(OCCN5CCCCC5)cc4)cnc23)ccn1 [Dorsomorphin] (first compound 0.8 µM, partner dose 2 µM)	32.2	73.6	63.9	75.8	101	69.4	58.6	61.6	56.4	105
